# Not every detail of the peptide structures is certain; ends, links or a residue may be inferred. At least one compound was matched to its structure with a doubt left. *1 amine or outer side, *2 acyl side, *3 side chain or, on linkers, in order; H or OH if unused. Where a SMILES comes first, the peptide text is derived from it. Side-chain parts run from the residue outwards. The star is where a group is joined. C18 diacid = O=C(O)CCCCCCCCCCCCCCCCC(=O)*; γGlu = O=C(O)[C@H](CCC(=O)[*:2])N[*:1]; AEEA = NCCOCCOCC(=O)O
# Legend:
# Y2 receptor = molecular target: T1, Y2 receptor (Homo sapiens, UniProt P49146); assay: Y2 receptor ACTOne based FLIPR assay (cAMP biosensor); assay type: cell-based; conditions: Table 2, PP analogues; ACTOne HEK-293 cells
# T1 construct: host or cells: ACTOne HEK-293 cells
# T1 sequence (P49146 1-381): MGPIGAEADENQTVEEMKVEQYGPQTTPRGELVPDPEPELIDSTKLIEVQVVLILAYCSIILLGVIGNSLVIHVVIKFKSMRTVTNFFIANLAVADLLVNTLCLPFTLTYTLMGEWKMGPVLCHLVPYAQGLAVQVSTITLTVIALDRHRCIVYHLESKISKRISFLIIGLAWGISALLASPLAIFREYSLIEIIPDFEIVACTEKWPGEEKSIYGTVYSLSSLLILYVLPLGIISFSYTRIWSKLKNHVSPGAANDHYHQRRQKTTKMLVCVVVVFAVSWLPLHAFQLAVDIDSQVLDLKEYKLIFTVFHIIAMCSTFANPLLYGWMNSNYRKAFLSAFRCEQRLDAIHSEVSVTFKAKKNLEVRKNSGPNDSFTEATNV
# Excerpt: (§1) ACTOne™ is an easily scaleable cAMP biosensor HTS platform for measurement of Gs and Gi coupled 7™ receptor signalling from BD Biosciences (San Jose, Calif.). The cells express a biosensor developed around a modified rat olfactory cyclic nucleotide gated (CNG) calcium channel—a fairly non-discriminatory ion channel that responds to cAMP and cGMP. The CNG has been engineered to be cAMP selective and thus function as a cAMP responsive biosensor that signals through calcium or membrane potential responsive dyes. Y2 or Y4 receptor expressing ACTOne HEK-293 cells are obtained from BD Biosciences. The cells are loaded with a calcium responsive dye that only distributes in the cytoplasm. Probenecid, an inhibitor of the organic anion transporter is added to prevent the dye from leaving the cell. A phosphodiesterase inhibitor is added to prevent formatted cAMP from being degraded. Isoproterenol (an β1/β2 agonist) is added to activate the adenylate cyclase. When an Y2 or Y4 receptor agonist is added, the adenylate cyclase is inactivated. The decreased calcium concentration in the cytoplasm is then detected as an increase in fluorescence. Together with the test substance, Isoproterenol at a concentration matching EC80, is added to all wells. • The cells are plated out in Greiner 384-well plates. […] The plates are covered with tinfoil to avoid light (the dye can be excited by the daylight, which results in higher baseline and variation). • The FLIPR (FLIPRtetra from Molecular Devices, CA, USA) adds 1 μl sample and 1 μl isoproterenol (0.05 μM final concentration) at the same time. • The fluorescence signal from the wells is measured 330 seconds after sample addition on the FLIPR.
# (§2) Receptor potency of PYY and PP derivatives and analogues thereof was determined using the method “Measuring Y2 or Y4 Receptor Activity Using ACTOne Based FLIPR Assay” as described herein.
# Y4 receptor = molecular target: T2, Y4 receptor (Homo sapiens, UniProt P50391); assay: Y4 receptor ACTOne based FLIPR assay (cAMP biosensor); assay type: cell-based; conditions: Table 2, PP analogues; ACTOne HEK-293 cells
# T2 construct: host or cells: ACTOne HEK-293 cells
# Excerpt: as §1, §2
# T2 sequence (P50391 whole entry): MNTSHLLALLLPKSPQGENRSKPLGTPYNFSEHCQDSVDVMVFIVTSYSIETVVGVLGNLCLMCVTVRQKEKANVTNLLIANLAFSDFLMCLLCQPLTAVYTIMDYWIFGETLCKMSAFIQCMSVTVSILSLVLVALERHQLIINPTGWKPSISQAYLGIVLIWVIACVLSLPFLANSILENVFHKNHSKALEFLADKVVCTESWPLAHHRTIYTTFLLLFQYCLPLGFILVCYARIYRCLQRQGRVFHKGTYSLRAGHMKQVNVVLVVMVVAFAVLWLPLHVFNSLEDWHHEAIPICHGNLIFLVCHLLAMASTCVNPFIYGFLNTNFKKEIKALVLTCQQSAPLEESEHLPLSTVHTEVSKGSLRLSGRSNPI
SMILES,EC50 (Y2 receptor),EC50 (Y4 receptor)
"CC[C@H](C)[C@H](NC(=O)[C@H](Cc1ccc(O)cc1)NC(=O)[C@H](CCCNC(=N)N)NC(=O)[C@H](CCCNC(=N)N)NC(=O)[C@H](CC(C)C)NC(=O)[C@H](CC(=O)O)NC(=O)[C@H](C)NC(=O)[C@H](C)NC(=O)[C@H](Cc1ccc(O)cc1)NC(=O)[C@H](CCC(N)=O)NC(=O)[C@H](C)NC(=O)[C@H](CCSC)NC(=O)[C@H](CCC(N)=O)NC(=O)[C@H](CCC(=O)O)NC(=O)[C@@H]1CCCN1C(=O)[C@H](CCCCNC(=O)COCCOCCNC(=O)COCCOCCNC(=O)CC[C@H](NC(=O)CCCCCCCCCCCCCCCCC(=O)O)C(=O)O)NC(=O)[C@H](C)NC(=O)[C@H](CC(N)=O)NC(=O)[C@H](CC(=O)O)NC(=O)CNC(=O)[C@@H]1CCCN1C(=O)[C@H](Cc1ccc(O)cc1)NC(=O)[C@@H](NC(=O)[C@@H]1CCCN1C(=O)[C@H](CCC(=O)O)NC(=O)[C@H](CC(C)C)NC(=O)[C@@H]1CCCN1C(=O)[C@H](C)N)C(C)C)C(=O)N[C@@H](CC(N)=O)C(=O)N[C@@H](CCSC)C(=O)N[C@@H](CC(C)C)C(=O)N[C@H](C(=O)N[C@@H](CCCNC(=N)N)C(=O)N1CCC[C@H]1C(=O)N[C@@H](CCCNC(=N)N)C(=O)N[C@@H](Cc1ccc(O)cc1)C(N)=O)[C@@H](C)O [SEQ ID NO: 31, N-epsilon13-[2-(2-{2-[2-(2-{2-[(S)-4-Carboxy-4-(17-carboxyheptadecanoylamino)butyrylamino]ethoxy}ethoxy)acetylamino]-ethoxy}ethoxy)acetyl][Lys13]hPP(1-36)] (H-APLEPVYPGDNAK([AEEA-AEEA-γGlu-C18 diacid])PEQMAQYAADLRRYINMLTRPRY-NH2; N-terminus and C-terminus assumed)",> 1 µM,0.004 µM
"CC[C@H](C)[C@H](NC(=O)[C@H](Cc1ccc(O)cc1)NC(=O)[C@H](CCCNC(=N)N)NC(=O)[C@H](CCCNC(=N)N)NC(=O)[C@H](CC(C)C)NC(=O)[C@H](CC(=O)O)NC(=O)[C@H](C)NC(=O)[C@H](C)NC(=O)[C@H](Cc1ccc(O)cc1)NC(=O)[C@H](CCC(N)=O)NC(=O)[C@H](C)NC(=O)[C@H](CC(C)C)NC(=O)[C@H](CCC(N)=O)NC(=O)[C@H](CCC(=O)O)NC(=O)[C@@H]1CCCN1C(=O)[C@@H](NC(=O)[C@H](C)NC(=O)[C@H](CC(N)=O)NC(=O)[C@H](CC(=O)O)NC(=O)CNC(=O)[C@@H]1CCCN1C(=O)[C@H](Cc1ccc(O)cc1)NC(=O)[C@@H](NC(=O)[C@@H]1CCCN1C(=O)[C@H](CCC(=O)O)NC(=O)[C@H](CC(C)C)NC(=O)[C@@H]1CCCN1)C(C)C)[C@@H](C)O)C(=O)N[C@@H](CC(N)=O)C(=O)N[C@@H](CC(C)C)C(=O)N[C@@H](CC(C)C)C(=O)N[C@H](C(=O)N[C@@H](CCCNC(=N)N)C(=O)N1CCC[C@H]1C(=O)N[C@@H](CCCCNC(=O)COCCOCCNC(=O)COCCOCCNC(=O)CC[C@H](NC(=O)CCCCCCCCCCCCCCCCC(=O)O)C(=O)O)C(=O)N[C@@H](Cc1ccc(O)cc1)C(N)=O)[C@@H](C)O [SEQ ID NO: 47, N-epsilon35-[2-(2-{2-[2-(2-{2-[(S)-4-Carboxy-4-(17-carboxyheptadecanoylamino)butyrylamino]ethoxy}ethoxy)acetylamino]-ethoxy}ethoxy)acetyl][Leu17,Leu30,Lys35]hPP2-36] (H-PLEPVYPGDNATPEQLAQYAADLRRYINLLTRPK([AEEA-AEEA-γGlu-C18 diacid])Y-NH2)",> 1 µM,> 1 µM

# From US20110275559A1, “Long-Acting Y2 and/or Y4 Receptor Agonists” (Novo Nordisk A/S, priority 2008, published 2011)
